According to patent US3954972A, “Antibiotic A-26771 factor” (Eli Lilly and Company, priority 1975, dated 1976):

Assays:
[1] = for solubility in polar organic solvents: such as ethyl acetate, ethanol, methanol, chloroform
[2] = test system: Fusarium moniliforme; assay: microbe, parasite or virus in culture
[3] = test system: Mycobacterium avium; assay: disc-plate assay, Mycobacterium avium; settings: for zone of inhibition at 1000 µg/mL: Mycobacterium avium, read-out: inhibition-zone diameter
[4] = test system: Bacillus subtilis; assay: microbe, parasite or virus in culture
[5] = test system: Candida albicans; assay: microbe, parasite or virus in culture
[6] = test system: Trichophyton mentagrophytes; assay: microbe, parasite or virus in culture
[7] = test system: Pseudomonas solanacearum; assay: microbe, parasite or virus in culture; settings: Ralstonia solanacearum, read-out: inhibition-zone diameter
[8] = test system: Serratia marcescens; assay: microbe, parasite or virus in culture; settings: read-out: inhibition-zone diameter
[9] = test system: Sarcina lutea; assay: microbe, parasite or virus in culture; settings: Micrococcus luteus, read-out: inhibition-zone diameter
[10] = test system: Saccharomyces pastorianum; assay: microbe, parasite or virus in culture; settings: read-out: inhibition-zone diameter
[11] = test system: Staphylococcus aureus; assay: microbe, parasite or virus in culture; settings: read-out: inhibition-zone diameter
[12] = test system: Neurospora crassa; assay: microbe, parasite or virus in culture; settings: read-out: inhibition-zone diameter
[13] = Trichophyton mentagrophytes, read-out: inhibition-zone diameter

**Q.** What does the source list for `CC1CCCCCCCCCC(OC(=O)CCC(=O)O)C(=O)/C=C/C(=O)O1` (centres unmarked) [Factor B, mono(16-methyl-2,5-dioxooxacyclohexadec-3-en-6-yl) succinate]?
**A.** solubility in polar organic solvents [1]: slightly soluble; solubility in water [1]: relatively insoluble; inhibition-zone diameter ([2]; 1.0 mg./ml.): tr (trace); zone of inhibition at 1000 µg/mL [3]: 9 mm; inhibition-zone diameter ([4]; 0.1 mg./ml.): tr (trace); inhibition-zone diameter ([5]; 1.0 mg./ml.): tr (trace); inhibition-zone diameter ([6]; 0.1 mg./ml.): tr (trace)

**Q.** Which “solubility in polar organic solvents” value [1] does the source give for `CN1C(=O)C2(Cc3ccccc3)SSC1(CO)C(=O)N2C` (single isomer, unassigned) [Factor A, 3-benzyl-6-(hydroxymethyl)-1,4-dimethyl-3,6-epidithio-2,5-piperazinedione] here?
**A.** soluble

**Q.** And the solubility in water [1]?
**A.** relatively insoluble

**Q.** What about the inhibition-zone diameter ([3]; 0.1 mg./ml.) of the same molecule?
**A.** tr (trace)

**Q.** And the zone of inhibition at 1000 µg/mL [7]?
**A.** 13 mm

**Q.** And the inhibition-zone diameter ([5]; 0.1 mg./ml.)?
**A.** tr (trace)

**Q.** With `CN1C(=O)C2(Cc3ccccc3)SSSSC1(CO)C(=O)N2C` (centres unmarked) [Factor C, 3-benzyl-6-(hydroxymethyl)-1,4-dimethyl-3,6-epitetrathio-2,5-piperazinedione] as the molecule, how does the “solubility in polar organic solvents” value [1] read?
**A.** soluble

**Q.** What about the solubility in water [1] of the same molecule?
**A.** relatively insoluble

**Q.** And the zone of inhibition at 1000 µg/mL ([2]; Fusarium verticillioides, read-out: inhibition-zone diameter)?
**A.** 8 mm

**Q.** What about the zone of inhibition at 1000 µg/mL [8] of the same molecule?
**A.** 14 mm

**Q.** And the zone of inhibition at 100 µg/mL [9]?
**A.** 14 mm

**Q.** What about the zone of inhibition at 1000 µg/mL [9] of the same molecule?
**A.** 26 mm

**Q.** What about the zone of inhibition at 1000 µg/mL [3] of the same molecule?
**A.** 11 mm

**Q.** What about the zone of inhibition at 1000 µg/mL [10] of the same molecule?
**A.** 25 mm

**Q.** And the zone of inhibition at 1000 µg/mL ([4]; Bacillus subtilis, read-out: inhibition-zone diameter)?
**A.** 20 mm

**Q.** And the zone of inhibition at 1000 µg/mL [11]?
**A.** 20 mm

**Q.** What about the zone of inhibition at 1000 µg/mL [12] of the same molecule?
**A.** 22 mm

**Q.** And the zone of inhibition at 1000 µg/mL ([5]; Candida albicans, read-out: inhibition-zone diameter)?
**A.** 23 mm

**Q.** And the zone of inhibition at 100 µg/mL [6, 13]?
**A.** 12 mm

**Q.** And the zone of inhibition at 1000 µg/mL [6, 13]?
**A.** 19 mm
